{
  "source": "paper PMC4999505",
  "about": "“Linear ubiquitination is involved in the pathogenesis of optineurin-associated amyotrophic lateral sclerosis” (Nature Communications, 2016)",
  "molecular_target": "T1, linear (M1-linked) tetraubiquitin (UniProt P0CG48 in part; P0CG48 in part; P0CG48 in part; P0CG48 in part)",
  "T1 construct": "ubiquitin, first unit of four joined head to tail (M1-linked); ubiquitin, second unit; ubiquitin, third unit; ubiquitin, fourth unit; also called linear tetraubiquitin; linear tetra-ubiquitin; source: E. coli, purified (heat treatment, HiTrap SP, Superdex 200)",
  "T1 sequence (P0CG48 1-304)": "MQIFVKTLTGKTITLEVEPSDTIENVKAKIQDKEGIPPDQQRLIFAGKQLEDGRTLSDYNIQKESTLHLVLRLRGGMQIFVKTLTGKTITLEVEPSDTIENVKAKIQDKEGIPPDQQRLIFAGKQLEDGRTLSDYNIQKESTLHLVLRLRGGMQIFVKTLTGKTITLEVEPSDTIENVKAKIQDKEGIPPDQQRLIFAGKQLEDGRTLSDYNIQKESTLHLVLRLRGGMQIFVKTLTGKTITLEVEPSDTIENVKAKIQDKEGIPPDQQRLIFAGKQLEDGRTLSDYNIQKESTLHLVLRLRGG",
  "experiment": "SPR; Biacore X100, CM5 chip; linear tetraubiquitin immobilised by amine coupling (around 500 RU), BSA on the reference cell; OPTN injected at 30 μl/min for 120 s, dissociation 300 s; HBS-EP+ (10 mM Hepes-NaOH pH 7.4, 150 mM NaCl, 0.05% Tween 20, 3 mM EDTA), 25 °C; global fit to a 1:1 interaction model",
  "details": "both partners purified",
  "data": [
    {"binder": "full-length OPTN-WT protein used as SPR analyte (natural protein, optineurin (OPTN), full length; it may be the MBP fusion m11; also called OPTN protein) not shown", "values": [
      {"measurement": "Kd", "result": 1.02, "unit": "µM"},
      {"measurement": "koff", "result": 0.00519, "unit": "s⁻¹"},
      {"measurement": "kon", "result": 5090, "unit": "M⁻¹ s⁻¹"}
    ]}
  ]
}
